For assay [1], the target named is PAX9 (as used in the co-immunoprecipitation with USP49 variants, Fig. 5B) (human) (UniProt P55771). The assay is described as follows: co-IP; USP49-FL, USP49-N (1-250) and USP49-C (251-640) with PAX9 or MSX1; IP and immunoblotting with the indicated antibodies; cells and direction of the IP not stated.
The target of assay [2] is MSX1 (as used in the co-immunoprecipitation with USP49 variants, Fig. 5C) (human) (UniProt P28360). Described as above.
The target of assay [3] is Endogenous MSX1 (Msh Homeobox 1 protein) (human (endogenous in hDPSCs)) (UniProt P28360). The assay can be described thus: proximity ligation; Duolink in situ PLA in fixed hDPSCs with primary antibodies to USP49, PAX9 and MSX1; endogenous proteins.
In assay [4] the target is Endogenous PAX9 (paired box gene 9 protein) (human (endogenous in hDPSCs)) (UniProt P55771). The assay is described as above.
Assay [5] has as its target Endogenous MSX1 (Msh Homeobox 1 protein) (human (endogenous in hDPSCs)) (UniProt P28360). The assay can be described thus: co-IP; endogenous proteins; hDPSC lysates (2-3 mg) immunoprecipitated with USP49, PAX9 or MSX1 antibodies at 4 °C overnight, protein agarose beads; lysis buffer 25 mM Tris-HCl pH 7.4, 150 mM NaCl, 1 mM EDTA, 1% NP-40, 5% glycerol.
The target in assay [6] is Endogenous PAX9 (paired box gene 9 protein) (human (endogenous in hDPSCs)) (UniProt P55771). The description is as above.

Sequences of proteins named here, by UniProt entry; tags and fusion partners are left off. A change or cut given only in a name is not applied to a line headed by its entry.
UniProt P55771: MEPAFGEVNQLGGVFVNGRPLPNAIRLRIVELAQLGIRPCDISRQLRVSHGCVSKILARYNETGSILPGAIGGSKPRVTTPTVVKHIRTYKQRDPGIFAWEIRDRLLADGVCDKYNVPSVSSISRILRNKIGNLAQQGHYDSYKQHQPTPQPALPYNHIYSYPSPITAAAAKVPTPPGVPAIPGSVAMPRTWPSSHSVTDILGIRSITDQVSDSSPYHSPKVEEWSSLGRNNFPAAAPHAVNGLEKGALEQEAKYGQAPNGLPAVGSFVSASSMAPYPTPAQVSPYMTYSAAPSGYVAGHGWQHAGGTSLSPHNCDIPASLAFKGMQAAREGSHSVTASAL
UniProt P28360: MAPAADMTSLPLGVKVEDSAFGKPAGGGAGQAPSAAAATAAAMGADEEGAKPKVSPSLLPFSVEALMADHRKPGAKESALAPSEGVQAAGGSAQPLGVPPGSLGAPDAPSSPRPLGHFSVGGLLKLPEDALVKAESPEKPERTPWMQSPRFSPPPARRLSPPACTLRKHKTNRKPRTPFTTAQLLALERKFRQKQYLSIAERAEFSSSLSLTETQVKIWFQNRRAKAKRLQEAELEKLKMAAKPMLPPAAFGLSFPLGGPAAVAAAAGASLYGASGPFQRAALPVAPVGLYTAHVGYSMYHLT

These are yes or no findings as the source states them, for the method shown. In cells and extracts the contact can be indirect. Some entries that bind do so weakly or less than the wild type.

B1: N-terminus USP49 (1-250 aa) encoding the ZnF-UBP domain (domain or fragment, UniProt Q70CQ1 1-250)
chain: MDRCKHVGRLRLAQDHSILNPQKWCCLECATTESVWACLKCSHVACGRYIEDHALKHFEETGHPLAMEVRDLYVFCYLCKDYVLNDNPEGDLKLLRSSLLAVRGQKQDTPVRRGRTLRSMASGEDVVLPQRAPQGQPQMLTALWYRRQRLLARTLRLWFEKSSRGQAKLEQRRQEEALERKKEEARRRRREVKRRLLEELASTPPRKSARLLLHTPRDAGPAASRPAALPTSRRVPAATLKLRRQPAMAP
As to B1, the binding result in assay [1] and in assay [2] was “no binding” throughout.

B2: Endogenous USP49 (ubiquitin-specific protease 49) (enzyme, UniProt Q70CQ1 1-688)
chain: MDRCKHVGRLRLAQDHSILNPQKWCCLECATTESVWACLKCSHVACGRYIEDHALKHFEETGHPLAMEVRDLYVFCYLCKDYVLNDNPEGDLKLLRSSLLAVRGQKQDTPVRRGRTLRSMASGEDVVLPQRAPQGQPQMLTALWYRRQRLLARTLRLWFEKSSRGQAKLEQRRQEEALERKKEEARRRRREVKRRLLEELASTPPRKSARLLLHTPRDAGPAASRPAALPTSRRVPAATLKLRRQPAMAPGVTGLRNLGNTCYMNSILQVLSHLQKFRECFLNLDPSKTEHLFPKATNGKTQLSGKPTNSSATELSLRNDRAEACEREGFCWNGRASISRSLELIQNKEPSSKHISLCRELHTLFRVMWSGKWALVSPFAMLHSVWSLIPAFRGYDQQDAQEFLCELLHKVQQELESEGTTRRILIPFSQRKLTKQVLKVVNTIFHGQLLSQVTCISCNYKSNTIEPFWDLSLEFPERYHCIEKGFVPLNQTECLLTEMLAKFTETEALEGRIYACDQCNSKRRKSNPKPLVLSEARKQLMIYRLPQVLRLHLKRFRWSGRNHREKIGVHVVFDQVLTMEPYCCRDMLSSLDKETFAYDLSAVVMHHGKGFGSGHYTAYCYNTEGGFWVHCNDSKLNVCSVEEVCKTQAYILFYTQRTVQGNARISETHLQAQVQSSNNDEGRPQTFS
For B2, the binding result in assay [3], in assay [4], in assay [5] and in assay [6] was “binds” in each case.

The record behind these values is PMC9433428.
